From PubChem BioAssay AID1346428 (National Center for Advancing Translational Sciences (NCATS), 2018)
Screen size: about 48,000 compounds; about 1,200 (2.5%) were called active. Not shown: some 2% with an inconclusive outcome.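 How the source made its calls: active means activation of at least 60% and not above a set upper limit (about 1 call in 100 departs from these limits); inconclusive means activation of 40% to 60%, or above that upper limit; inactive means activation under 40%.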 The list shows a part of the results.

molecular target: Probable G-protein coupled receptor 32 (Homo sapiens) (UniProt O75388); assay: qHTS for Agonists of Human Resolvin D1 Receptor DRV1; details: CHO-K1 GPR32 beta-arrestin PathHunter luminescence, 90 min; at 76.9 µM; stronger effect = higher value; zero percent set by DMSO-only wells; further: 0% is about no effect
Chain of UniProt O75388 (O75388 whole entry, looked up): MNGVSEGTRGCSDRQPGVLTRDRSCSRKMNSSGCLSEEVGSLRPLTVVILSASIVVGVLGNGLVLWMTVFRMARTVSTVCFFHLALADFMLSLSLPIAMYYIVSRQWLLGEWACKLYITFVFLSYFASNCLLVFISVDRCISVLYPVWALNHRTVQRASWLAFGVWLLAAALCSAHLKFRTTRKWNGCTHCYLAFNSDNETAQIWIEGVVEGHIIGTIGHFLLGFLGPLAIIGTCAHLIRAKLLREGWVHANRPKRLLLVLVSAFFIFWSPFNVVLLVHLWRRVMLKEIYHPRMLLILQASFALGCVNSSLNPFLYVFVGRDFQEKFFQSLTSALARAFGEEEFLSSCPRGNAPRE
Outline: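 Engineered CHO-K1 line co-expressing GPR32-ProLink and EA-beta-arrestin. Compound treatment lasted 90 min at 37 °C. Luminescence was recorded after 1 h with substrate at ambient temperature, relative to DMSO basal wells.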

activation, inactive:
CC(=O)c1cc(-c2ccccc2)n(CCC(=O)Nc2nc3c(C)cccc3s2)c1C -10%
Cc1ccc(N2CC(NC(=O)Cc3ccc(F)cc3)CC2=O)cc1 (centres undefined) -4.42%
O=C1Cc2cc(S(=O)(=O)N3CCCCC3)cc3c2N1CCC3 -33.1%
COc1cc2[nH]c(=O)n(Cc3ccc(C(=O)NCc4ccc(C)cc4)cc3)c(=O)c2cc1OC -2.19%
COc1ccccc1NC(=O)Cn1c(=O)n(-c2cccc(Cl)c2)c(=O)c2sc3ccccc3c21 -0.863%
Cc1ccc2c(c1)sc1nc(-c3cc4cc(Cl)ccc4oc3=O)cn12 -7.6%
Cc1cccc(CSc2nc(=O)c3c(n2C)NC(=O)CC3c2cccc(O)c2)c1 (centres undefined) -14.6%
O=C(Cn1c(=O)n(Cc2ccc(C(=O)NCc3ccc4c(c3)OCO4)cc2)c(=O)c2ccccc21)Nc1cccc(Cl)c1 -4.25%
O=C(O)c1cc(=O)c2ccccc2[nH]1 -1.69%
CC1=C(C(=O)Nc2cccc(C(F)(F)F)c2)C2(CCCCCC2)OC1=O -20.1%
CCCCc1nn2c(=O)cc(COC(=O)c3cccs3)nc2s1 17.2%
Cc1ccc(Cn2c(=O)n(Cc3ccccc3Cl)c(=O)c3cccnc32)cc1 -37.5%
CCNc1sc(S(C)(=O)=O)nc1S(=O)(=O)c1ccc(C)cc1 -17.5%
Cc1cc(C(=O)N2CCN(c3cc(Cl)ccc3C)CC2)c2c(C)nn(-c3ccccc3)c2n1 -10.7%
Cn1c(=O)n(C)c2cc(N3CCCC3)c(NC(=O)Nc3ccccc3)cc21 39.5%
Clc1cccc(-n2ncc3c(N4CCCCCC4)ncnc32)c1 0.497%
Cc1ccc(NC(=O)Cn2ncn3c(cc4ccccc43)c2=O)cc1C -5.37%
CCc1ccc(NC(=O)CCNC(=O)Cn2cnc3ccccc3c2=O)cc1 36%
Cc1ccc(CNC(=O)c2cccc(Nc3nc4ccccc4n4nnnc34)c2)cc1 -13.8%
Cc1ccc(N2CCN(c3nc4ccccc4c4nnc(C)n34)CC2)c(C)c1 -0.856%
COC(=O)c1ccccc1NC(=O)Cn1c(=O)n(CCCCC(=O)NCc2ccc3c(c2)OCO3)c(=O)c2ccccc21 -41.2%
COc1cc(OC)c(NC(=O)c2c(C)oc3ncnc(N4CCCCC4)c23)cc1Cl -15.7%
Cn1c(=O)c2c(nc(N3CCOCC3)n2Cc2ccccc2)n(C)c1=O 0.403%
CCOC(=O)c1c(C)[nH]c(C)c1S(=O)(=O)N(C)CC(=O)N1CCN(c2cccc(Cl)c2)CC1 33.7%
